# Where “and” joins values, the source holds several entries; their conditions need not be identical. Equal entries are not always repeated. The whole screen tested about 100,000 compounds, of which about 250 (0.25%) were called active. Inconclusive means that the source gave no clear call. Such entries were picked first, then a sample of the others. Calls follow the shape of the dose curve; as a rule, active = well fitted inhibition curve with a large enough effect; inconclusive = small, poorly fitted or top-dose-only effect; inactive = flat fitted curve, though single readings scatter. A potency beside an inconclusive call is a rough fit, not a confirmed value. Some compounds were tested as several samples or in several runs, with calls that do not always agree.
# Molecular target: Alanine aminotransferase 2 (Homo sapiens) (UniProt Q8TD30)
# Assay: Primary qHTS assay for inhibitors of Glutamate pyruvate transaminase 2 (GPT2); also: nearly all actives have a fitted effect of over 60% in size
# Conditions: Recombinant GPT2, coupled pyruvate oxidase/HRP Amplex Red fluorescence; activity change, negative = inhibition: at 57.7 µM (top of the series) unless noted; series mostly up to 57.7 µM
# Procedure, shortened: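 GPT2 10ng/uL, a-KG 250uM, L-Ala 2mM, HEPES pH7.5 + 0.0001% Tween; 30 min RT. Then Amplex mix (PO/HRP/ThPP), 30 min RT dark, fluorescence. AOA 50uM used as positive control.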
# % is scaled to controls: 0 for no effect and ±100 for the full control effect; potency is read from the fitted curve at half-maximal effect; tags tell the direction and shape of the fitted curve.
# Chain of UniProt Q8TD30 (Q8TD30 whole entry, looked up): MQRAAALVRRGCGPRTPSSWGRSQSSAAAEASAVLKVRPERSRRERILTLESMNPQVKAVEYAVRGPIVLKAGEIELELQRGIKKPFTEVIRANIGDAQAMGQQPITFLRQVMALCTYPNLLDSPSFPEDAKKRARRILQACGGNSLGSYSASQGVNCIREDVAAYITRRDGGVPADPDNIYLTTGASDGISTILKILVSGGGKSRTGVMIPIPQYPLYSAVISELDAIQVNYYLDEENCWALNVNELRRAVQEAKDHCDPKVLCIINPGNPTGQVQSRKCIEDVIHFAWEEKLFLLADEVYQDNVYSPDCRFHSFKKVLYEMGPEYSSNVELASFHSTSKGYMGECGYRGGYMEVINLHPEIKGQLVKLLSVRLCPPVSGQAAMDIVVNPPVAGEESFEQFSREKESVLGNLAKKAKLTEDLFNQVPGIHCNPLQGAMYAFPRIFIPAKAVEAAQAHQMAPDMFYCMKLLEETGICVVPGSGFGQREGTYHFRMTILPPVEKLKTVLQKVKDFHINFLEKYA
SMILES,Potency,"activity change, negative = inhibition",outcome
Cc1nc2ccc(-c3nc(C4CCOC4)no3)cc2s1 (centres undefined),"inconclusive: 4.47 µM [inhibitor, single point]",,
O=c1c2nc(-c3ccccc3F)ccc2ncn1Cc1ccccn1,"inconclusive: 56.2 µM [inhibitor, single point]",,
O=C(NCC1CCCCCC1)C1CCCN(c2nccc(Nc3ccccc3F)n2)C1 (centres undefined),,inactive: -14.2%,
COc1ccccc1Nc1ccnc(N2CCC(NC(=O)c3ccc(C)cc3)CC2)n1,,,inactive
COc1ccnc(CCc2nc3ncccc3[nH]2)c1,"inconclusive: 8.91 µM [inhibitor, single point]",,
COCCC(=O)NCC1Cn2cccc2C(=O)N1Cc1ccccc1 (centres undefined),"inconclusive: 39.8 µM [inhibitor, single point]",,
COc1ccc(-n2nc3n(c2=O)CCN(C(=O)c2ccc4c(c2)OCO4)C3)cc1,,inactive: -0.75%,
Fc1ccc(-c2ccc3ncc(Nc4cc(F)cc(N5CCOCC5)c4)n3n2)cc1,"inconclusive: 56.2 µM [inhibitor, single point]",,
CCCn1c(C)cnc1CC1CCN(C(=O)NCc2ccc(C)cc2)CC1,,,inactive
NC1CCC(N[C@@H]2C[C@H]2c2ccccc2)CC1 (some centres undefined),"inconclusive: 15.3 µM [inhibitor, single point]",,
COc1cccc(-c2ccc(CN3CCCC3C(=O)N3CCOCC3)cc2)c1 (centres undefined),,inactive: -9.11%,
COCCOCC(=O)N1CCC(N2C[C@H](OC)[C@@H]2c2cccnc2)CC1,,,inactive
N#Cc1cccc(CN2C[C@@H](CO)[C@H](c3ccccn3)C2)c1,"inconclusive: 31.6 µM [inhibitor, single point]",,
COc1cccc(C2CNC(=O)c3nc(-c4ccc(C(=O)N(C)C)o4)[nH]c3C2)c1 (centres undefined),"inconclusive: 8.91 µM [inhibitor, single point]",,
O=C(NCc1ccccc1)C1COC2(CCN(C(=O)c3cccs3)CC2)N1C(=O)c1ccco1 (centres undefined),,,inactive
COc1ccc(CNC(=O)CCn2ccn3nc4c(c3c2=O)CCCC4)c(OC)c1,"inconclusive: 6.31 µM [inhibitor, single point]",,
O=C(Cc1ccc(F)cc1)N1CC2CC(C1)[C@H]1CCCC(=O)N1C2 (some centres undefined),"inconclusive: 6.31 µM [inhibitor, single point]",,
O[C@]12CCNC[C@H]1CN(Cc1cccc(-c3ccccc3)c1)CC2,"inconclusive: 7.08 µM [inhibitor, single point]",,
OCCN(CCO)c1nc(N2CCCCC2)c2nc(N(CCO)CCO)nc(N3CCCCC3)c2n1,"inconclusive: 1.41 µM [inhibitor, full curve, poor fit] and active: 6.31 µM",,
